Laboratory results taken from the supplement of paper PMC4166925.
± gives the standard deviation of the averaged measurements. In all, about 33,000 sequences were measured (“E-score (dimensionless, -0.5 to 0.5)”: median about -0.046, highest 2% from about 0.36 on). Some of the results follow.

Test system: T1, SpTbr T-box DNA-binding domain (GST fusion)
T1 sequence: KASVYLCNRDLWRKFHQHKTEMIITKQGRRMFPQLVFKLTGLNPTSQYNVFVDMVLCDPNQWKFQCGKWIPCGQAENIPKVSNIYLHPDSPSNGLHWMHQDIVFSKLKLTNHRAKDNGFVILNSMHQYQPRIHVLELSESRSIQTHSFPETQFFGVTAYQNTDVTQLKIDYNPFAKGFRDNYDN
Experiment: PBM E-score of 8-mer (E-score (dimensionless, -0.5 to 0.5)); Tbr is Tbrain of the sea star Patiria miniata (Pm) or the sea urchin Strongylocentrotus purpuratus (Sp); higher = stronger binding preference; most listed sequences are background and not binding sites
Conditions: the construct has about 5 more residues each side
How it was run: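 GST-fused Tbr T-box DNA-binding domains (the whole T-box plus about five flanking residues) were expressed in BL21 E. coli at 20 °C and purified by glutathione affinity chromatography. Universal Agilent oligonucleotide arrays were made double-stranded by primer extension, incubated with 200 nM protein in PBS (pH 7.5), then scanned and quantified. Every ungapped 8-mer was scored from probe intensities. The Universal PBM Analysis Suite gave each word an enrichment E-score, averaged over duplicate arrays.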

Row | Sequence | PBM E-score of 8-mer
1 | CCGCGTTC | -0.0537 ± 0.041
2 | GACGATGA | 0.0245 ± 0.045
3 | GAAAAATC | 0.143 ± 0.015
4 | GACGTTTA | -0.121 ± 0.009
5 | CTGTCTAC | 0.0474 ± 0.092
6 | ACTGGCCG | 0.0362 ± 0.019
7 | AGGATGTA | -0.156 ± 0.0079
8 | ATAGAAGC | -0.319 ± 0.016
9 | CGTAGAAC | -0.15 ± 0.0061
10 | AACTCACC | 0.0474 ± 0.0032
11 | ACAATCTC | 0.191 ± 0.02
12 | GTTTGAGA | -0.103 ± 0.031
13 | CAGTACCG | -0.144 ± 0.0067
14 | TAAGCAAA | -0.0444 ± 0.065
15 | GCAACGGA | -0.0911 ± 0.046
16 | GAGCAGCC | -0.1533 ± 0.00017
17 | GTATGTCA | 0.124 ± 0.013
18 | CCTGCTAA | 0.269 ± 0.031
19 | GCGCACCA | 0.00307 ± 0.052
20 | AGCCGTAA | -0.0458 ± 0.035
21 | TCTAAACA | -0.0194 ± 0.033
22 | ACTCTTCC | 0.0238 ± 0.049
23 | AACACTGG | -0.0384 ± 0.018
24 | CGATGGAA | 0.0114 ± 0.05
25 | ACAGCCAG | -0.0422 ± 0.015

Row | Sequence | PBM E-score of 8-mer
26 | ATTCATCA | 0.0642 ± 0.0052
27 | GAAGACCA | -0.0319 ± 0.069
28 | ATAAGAGC | -0.19 ± 0.022
29 | GAGTAGAA | -0.279 ± 0.06
30 | CGGAAGGC | -0.106 ± 0.0021
31 | ACGCGGCC | -0.0719 ± 0.013
32 | AGGTAGTA | -0.109 ± 0.075
33 | CAGCCCGA | -0.23105 ± 8.5e-05
34 | ACGCAGCG | -0.0568 ± 0.023
35 | AGGAACAC | 0.119 ± 0.05
36 | ATGCGACG | -0.0552 ± 0.022
37 | AGTCATTC | 0.0184 ± 0.041
38 | CTTACGAA | -0.0673 ± 0.021
39 | GAGGGCAA | -0.0557 ± 0.006
40 | TACTGGCA | 0.096 ± 0.038
41 | CACCTAGA | 0.294 ± 0.073
42 | TACTCGGA | -0.173 ± 0.045
43 | AACCTACA | 0.115 ± 0.031
44 | AAGAGGAT | 0.0367 ± 0.026
45 | ACAAGATC | -0.00501 ± 0.022
46 | CTATGCAG | -0.164 ± 0.12
47 | AAAATTGT | -0.00993 ± 0.011
48 | TCCCTGCA | -0.144 ± 0.026
49 | GACGTGCC | 0.213 ± 0.03
50 | AGGGGGTC | -0.232 ± 0.052

Row | Sequence | PBM E-score of 8-mer
51 | ATGGCCTA | -0.224 ± 0.048
52 | ATTAACGG | -0.0998 ± 0.097
53 | GTTGAGAA | 0.245 ± 0.027
54 | GTACTGCA | -0.0903 ± 0.067
55 | ACTGCTCT | -0.169 ± 0.043
56 | GTGTCAGA | 0.387 ± 0.023
57 | GACCAATC | 0.0964 ± 0.073
58 | CCCGGGAG | -0.175 ± 0.0097
59 | CTACATCC | -0.0668 ± 0.02
60 | CATAAGTC | -0.18 ± 0.0024
61 | CAGTACAC | -0.0373 ± 0.0042
62 | AATAGTGC | 0.118 ± 0.018
63 | GGACGTCC | -0.204 ± 0.046
64 | CCCCAACC | -0.132 ± 0.064
65 | AGAAAGAC | -0.162 ± 0.0095
66 | GAAATGCC | -0.0459 ± 0.042
67 | GATTTCGA | -0.00198 ± 0.018
68 | CAGAACAG | -0.167 ± 0.029
69 | AGCGGTGA | -0.00518 ± 0.036
70 | ACTAAGAG | -0.118 ± 0.024
71 | AGTAATAA | -0.2 ± 0.054
72 | CGCATGCA | -0.044 ± 0.025
73 | AGGCCGTA | -0.206 ± 0.062
74 | GGGGCAAA | -0.083 ± 0.049
75 | GCCGAAGA | -0.195 ± 0.015

Row | Sequence | PBM E-score of 8-mer
76 | ACTGCAAC | -0.0487 ± 0.026
77 | GCCTAGCA | -0.00432 ± 0.063
78 | CATCTAAA | -0.163 ± 0.075
79 | AAATGCCT | -0.188 ± 0.047
80 | GACATGTA | 0.0701 ± 0.015
81 | AATATCCT | -0.27 ± 0.026
82 | CCGGTCAG | -0.144 ± 0.022
83 | ATCCGGTC | -0.0309 ± 0.01
84 | GTCCATAA | -0.314 ± 0.024
85 | ACTAGGTG | 0.403 ± 0.012
86 | GAAGTGAA | 0.3 ± 0.0084
87 | GTCCGCTA | 0.0475 ± 0.0043
88 | AGCGCCCA | 0.0833 ± 0.077
89 | ATTAGGTA | -0.128 ± 0.05
90 | GCGCCGCA | 0.18 ± 0.016
91 | GCGCATAA | -0.108 ± 0.026
92 | ATCTTACC | -0.266 ± 0.054
93 | GCATAGGA | -0.35 ± 0.05
94 | ATCTCCCA | -0.152 ± 0.05
95 | ACGTCTTA | 0.0179 ± 0.075
96 | AGAATCTG | -0.0658 ± 0.088
97 | GCTAAAAA | 0.043 ± 0.005
98 | CACGCATA | 0.2247 ± 0.00032
99 | CAGAGTAC | -0.0758 ± 0.089
100 | CGCTGCCG | 0.141 ± 0.017

Row | Sequence | PBM E-score of 8-mer
101 | GACGGGCC | -0.12 ± 0.046
102 | TAACTAAA | -0.136 ± 0.068
103 | CCGCGGCC | -0.255 ± 0.11
104 | TGCCTAAA | 0.05 ± 0.06
105 | CAACGCTG | 0.178 ± 0.016
106 | AGCGTTTA | -0.113 ± 0.017
107 | AGTGCTCC | -0.0941 ± 0.03
108 | AACCGATT | -0.0309 ± 0.044
109 | CGAACCAC | 0.0139 ± 0.059
110 | ATGTATCA | 0.144 ± 0.021
111 | GAGTAATC | 0.0889 ± 0.028
112 | GTAAATCA | -0.00407 ± 0.026
113 | AAAATGTT | -0.234 ± 0.062
114 | GCTGGACC | -0.282 ± 0.085
115 | AGAATCAG | -0.267 ± 0.034
116 | CAGGCATA | -0.2 ± 0.026
117 | GATAGCAC | 0.3602 ± 0.0019
118 | CGGAACAG | -0.0788 ± 0.066
119 | GAAGCCGC | 0.0501 ± 0.038
120 | TCCCACCA | 0.154 ± 0.04
121 | GACTGCTC | -0.193 ± 0.02
122 | AAGTACGA | -0.0585 ± 0.034
123 | GGGACGGA | -0.163 ± 0.063
124 | CACACTAA | 0.305 ± 0.034
125 | GACCGTGC | 0.00624 ± 0.061

Row | Sequence | PBM E-score of 8-mer
126 | GTGAGCGA | 0.2245 ± 0.00028
127 | AGGCTGAA | -0.129 ± 0.037
128 | CCGTCTCC | -0.189 ± 0.043
129 | CAGGAGCG | -0.0447 ± 0.098
130 | AAGGGTGA | 0.136 ± 0.04
131 | ACTCGTAT | 0.0399 ± 0.089
132 | AGAGACCC | -0.192 ± 0.0083
133 | CTGGGCTC | -0.215 ± 0.054
134 | ACTTAACT | 0.104 ± 0.0014
135 | CTCGGGCC | -0.167 ± 0.0065
136 | CAATGGAC | -0.0329 ± 0.0081
137 | CCCAGACC | -0.0208 ± 0.1
138 | CGAGTCCA | -0.183 ± 0.08
139 | GAGCGAAA | 0.0791 ± 0.049
140 | ATTTAGCG | 0.0855 ± 0.028
141 | ACCACAAC | 0.121 ± 0.067
142 | ACTGCATA | 0.0429 ± 0.064
143 | CCGCCCAG | 0.0779 ± 0.012
144 | GACTGCTA | -0.00799 ± 0.013
145 | AAAGCTTA | -0.0784 ± 0.018
146 | ACAACCAA | 0.0641 ± 0.0038
147 | GAGCATAC | 0.00464 ± 0.0056
148 | CGAATTCC | -0.0929 ± 0.082
149 | AGTCCCAC | 0.0601 ± 0.042
150 | ATGCAATA | -0.39 ± 0.032

Row | Sequence | PBM E-score of 8-mer
151 | GCAACAAC | 0.0625 ± 0.016
152 | CGAAATAA | 0.201 ± 0.069
153 | TCACTTCA | 0.151 ± 0.018
154 | GGTGTAGA | 0.35 ± 0.009
155 | AGCACCGG | -0.0409 ± 0.027
156 | AATAAAAT | -0.0829 ± 0.032
157 | ATCTCCAC | 0.0376 ± 0.0077
158 | GCCTGGCA | 0.127 ± 0.019
159 | GATTCCCA | 0.0623 ± 0.015
160 | AAGCGTTC | 0.00311 ± 0.039
161 | AGCATCCT | -0.0697 ± 0.018
162 | AGACATCT | -0.116 ± 0.036
163 | AGACAACA | 0.231 ± 0.044
164 | TCTCTCAA | 0.139 ± 0.051
165 | GGAGCGTA | -0.158 ± 0.04
166 | ACAAATAT | 0.0365 ± 0.017
167 | AAACTAAC | 0.171 ± 0.017
168 | ATTAGTCC | -0.319 ± 0.084
169 | AAGACACC | 0.31 ± 0.023
170 | ACTCGTTA | 0.118 ± 0.074
171 | ACATATTA | -0.0539 ± 0.0078
172 | CTGGTAAG | -0.132 ± 0.066
